In PubChem BioAssay AID1159614 (National Center for Advancing Translational Sciences (NCATS), 2016):
Screen size: about 45,000 compounds; about 65 (0.1%) were called active. Calls come from the whole dose curve; as a rule, active = well fitted activation curve with a large enough effect; inconclusive = small, poorly fitted or top-dose-only effect; inactive = no such curve, though single readings can be large or run the other way. The list shows a part of the results.

The molecules below were run against Galactocerebrosidase (Homo sapiens) (UniProt P54803) (assay: A Novel Cell-Based Assay to Identify Small Molecules for B -Galactocerebrosidase). Conditions: 145M-Twi-hGALC-G270D cells (Twitcher mouse brain line with human GALC G270D), HMU-beta-Gal fluorescence, 48 h; series mostly up to 57.5 µM; activation: at the top concentration.
Summary of the method: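 Fluorescence readout: HMU-β-gal cleavage by mutant GALC (0.1 mM final, citrate/phosphate pH 5.2 with 1 mg/mL taurocholate), stopped with carbonate/bicarbonate plus Triton X-100. Cells: murine Twitcher 145M-Twi expressing human G270D GALC; qHTS for activators.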
Note: 0% is about no effect; nearly all actives have a fitted effect of over 65% in size.

Sequence of UniProt P54803 (P54803 whole entry, looked up): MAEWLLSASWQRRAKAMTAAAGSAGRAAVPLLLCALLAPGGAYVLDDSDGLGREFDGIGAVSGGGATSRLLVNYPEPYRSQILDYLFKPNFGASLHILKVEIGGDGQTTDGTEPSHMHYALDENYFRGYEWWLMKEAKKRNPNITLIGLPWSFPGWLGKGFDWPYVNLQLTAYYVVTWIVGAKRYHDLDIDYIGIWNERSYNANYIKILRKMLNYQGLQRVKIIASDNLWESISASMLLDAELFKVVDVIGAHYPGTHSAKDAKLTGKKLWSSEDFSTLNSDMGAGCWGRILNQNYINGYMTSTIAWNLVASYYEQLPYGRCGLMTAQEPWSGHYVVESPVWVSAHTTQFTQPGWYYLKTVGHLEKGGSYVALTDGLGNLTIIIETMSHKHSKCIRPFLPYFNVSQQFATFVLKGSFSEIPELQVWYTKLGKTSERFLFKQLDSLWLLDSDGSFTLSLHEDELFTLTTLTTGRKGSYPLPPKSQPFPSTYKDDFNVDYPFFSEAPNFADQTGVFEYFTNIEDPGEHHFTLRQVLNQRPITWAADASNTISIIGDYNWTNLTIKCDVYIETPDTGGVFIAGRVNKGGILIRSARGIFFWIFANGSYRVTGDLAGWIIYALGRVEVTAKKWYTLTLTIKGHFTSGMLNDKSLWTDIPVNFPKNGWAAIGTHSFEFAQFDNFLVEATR

activation, inactive:
c1ccc2c(CC3=NCCN3)cccc2c1 -15.3%
CCC(C)NC(=O)c1sc2nc(C)c(C(=O)Nc3ccc(C)cc3C)c(-c3ccc(Cl)cc3)c2c1N (stereo not drawn) -7.68%
O=C1COc2cc(S(=O)(=O)CCC(=O)N3CCN(c4cccc(Cl)c4)CC3)c(Cl)cc2N1 -5.7%
CCOc1ccc(CNC(=O)Cn2nc(C)c3nn(-c4ccc(Cl)cc4)c(C)c3c2=O)cc1OC -6.85%
COC(=O)c1cnn(-c2ccc(C(=O)Nc3ccc(C(C)=O)cc3)cc2)c1N -8.97%
O=C(CN1CCSc2ccccc21)N1CCN(c2cccc(Cl)c2)CC1 -31.1%
Cc1ccc(-n2ncc3c(NC4CCCCC4)ncnc32)cc1 -5.78%
Cc1ccc(Cc2nc3ccccc3nc2SCC(=O)Nc2cccc(C(F)(F)F)c2)cc1 -14.6%
CC(C)(C)c1ccc(S(=O)(=O)NCc2nc3cccnc3n2Cc2ccccc2Cl)cc1 -2.74%
O=C(CSc1nc(-c2ccccc2)[nH]c1-c1ccccc1)Nc1ccc2c(c1)OCCO2 -5.41%
Cc1nc(N2CCCC2)c2c(C(=O)N3CCN(c4cccc(C)c4C)CC3)c(C)oc2n1 -11%
CCC(=O)Nc1ccc2nc(SCc3ccc(C)cc3)sc2c1 -16%
CC(C)c1ccccc1NC(=O)CN1C(=O)c2cccc3cccc1c23 -13.5%
CC(C)c1cc(-c2nc(-c3ccccc3)no2)n[nH]1 -19.7%
COc1ccc(S(=O)(=O)N2CCN(Cc3ccc4c(c3)OCO4)CC2)cc1OC -1.12%
CN(CC(=O)Nc1ccccc1Cl)S(=O)(=O)c1ccc(C(=O)N2CCOCC2)s1 -19.1%
CCCSCCCNC(=O)c1ccc2c(c1)nc1n2CCCCC1 -7.29%
Cc1ccc(Nc2cc(C)c(C#N)c3nc4ccccc4n23)cc1Cl -11.1%
O=C(Cc1ccccc1)N(Cc1cccnc1)c1nc2ccc(F)cc2s1 -11.1%
O=C(CSc1ccccc1)NCc1ccc2c(c1)CCN2C(=O)c1ccc(F)cc1 -17.8%
COCCNC(=O)c1nn(-c2ccc(Cl)cc2)nc1CO -11.7%
Cn1cnc(S(=O)(=O)N2CCC(C(=O)NCc3ccc(Cl)cc3)CC2)c1 -7.1%
COc1ccc(CNC(=O)c2cc3c(=O)n(C)c4ccccc4c3n2C)cc1 -4.3%
O=C(COc1ccccc1)Nc1nnc(S(=O)(=O)N2CCCCCC2)s1 -8.95%
Cc1ccccc1-c1nnc(C2CCN(S(=O)(=O)c3ccc(Cl)cc3)CC2)o1 -7.87%
CCc1ccc(CNC(=O)CCCN2C(=O)c3cccnc3Oc3ccc(Cl)cc32)cc1 -5%
CCOc1cc(C2CC(=O)Nc3nc(SCc4ccccc4)[nH]c(=O)c32)ccc1O (stereo not drawn) -6.75%
CCOC(=O)c1ccc(N2C(=O)c3[nH]nc(-c4ccc(OCC)cc4)c3C2c2ccc(OC)cc2OC)cc1 (stereo not drawn) 5.84%
CCc1ccc2oc(-c3ccc(NC(=O)c4cc(OC)c(OC)c(OC)c4)cc3)nc2c1 -28.4%
O=C(Nc1cccc2cccnc12)c1ccc(F)cc1 -17.6%
CCCN(CCC)CCCNC(=O)Cn1cnc2onc(-c3ccc(F)cc3)c2c1=O -27.8%
O=C(Cn1cnc2c(nc3n2CCCCC3)c1=O)Nc1ccc(F)cc1 -25.5%
O=C(CCCn1c(=O)[nH]c2ccccc2c1=O)NCc1ccccc1Cl 0.935%
CCc1nn(CC(=O)NCCCOC)c(=O)c2cc3occc3n12 -5.42%
COc1cc(-c2cc(OC)c3c(C)oc(C)c3c(=O)c2)ccc1OC(=O)c1ccccc1C -0.896%
COC(=O)C(C)Sc1nnc2cc(C)c3cc(C)cc(C)c3n12 (stereo not drawn) -8.42%
COc1ccccc1NC(=O)Cn1c(=O)n(Cc2ccco2)c(=O)c2oc3ccccc3c21 -10.4%
Cc1ccc2c(=O)cc(C(=O)Nc3c(C)n(C)n(-c4ccccc4)c3=O)oc2c1C -19.7%
CCC(=O)NC1CC(=O)N(c2ccc3c(c2)OCCO3)C1 (stereo not drawn) -8.11%
O=C(CN1C(=O)C(c2ccc(F)cc2)=NC12CCCCCC2)Nc1ccc(F)c(Cl)c1 6.47%
Cc1cc(C)c2c(-n3cccc3)c(C(=O)NCCc3ccc(Cl)cc3)sc2n1 -1.96%
CN(C(=O)c1nc(-c2cccc(F)c2)n2c1CCCCC2)c1ccccc1F -4.73%
COc1ccc(S(=O)(=O)N2c3ccc(Cl)cc3[C@@](O)(c3ccccc3Cl)[C@H]2C(=O)N2CCC[C@@H]2C(N)=O)cc1OC -3.18%
COc1cc(C2c3c(-c4ccccc4O)n[nH]c3C(=O)N2Cc2ccncc2)ccc1O (stereo not drawn) -8.46%
Cc1nc2ccc(S(=O)(=O)CCC(=O)Nc3ccc(F)cc3C)cc2s1 -10.2%
COc1cc(Cl)c(NC(=O)C2CCN(S(=O)(=O)c3c(C)noc3/C=C/c3ccccc3F)CC2)c(OC)c1 2.63%
CC(C)c1ccc(NC(=O)CCCc2nc(-c3ccc(Cl)cc3)no2)cc1 -13.6%
CCc1ccc(NC(=O)CSc2ccc3nnc(CCNS(=O)(=O)c4ccc(OC)cc4)n3n2)cc1 -16.8%
Cc1cc(OCCCSc2nc(-c3ccc(C(C)(C)C)cc3)nc3cc(=O)[nH]n23)ccc1Cl -4.92%
Cc1ccccc1NC(=O)c1ccccc1NC(=O)c1ccccc1Cl -12%
CCc1ccc(NC(=O)C2CCN(c3cc(C)nc4c(-c5ccc(Cl)cc5)c(C)nn34)CC2)cc1 -7.15%
CCOC(=O)c1cc(-c2ccc(C)cc2)nn1Cc1ccccc1 -22.8%
COc1ccc(NS(=O)(=O)c2ccc(NC(=O)N3CCCC3)cc2)cc1 -12.9%
Cc1ccc(-c2cn3c(n2)sc2cc(C(=O)NCCCc4ccccc4)ccc23)cc1 -5.36%
Cc1ccc(C2=Nc3ccccc3NC(c3ccncc3)=N2)cc1 -19.7%
CCOc1ccc(-c2nc3c(C#N)c[nH]n3c2NC2CCCC2)cc1 18.7%
CNS(=O)(=O)c1cn(CC(=O)Nc2ccc(C)cc2C)cc1S(=O)(=O)NC -11.3%
COc1ccc(Nc2cc(C)nc(-n3nc(C)cc3C)n2)cc1Cl -22.9%
COc1ccc(CCNC(=O)CCc2c(C)nc3c(c(C)nn3-c3ccc(C)cc3)c2C)c(OC)c1 -18.1%
CCc1ccccc1NC(=O)C1CCCN(S(=O)(=O)c2cccc3nsnc23)C1 (stereo not drawn) -4.59%
Cc1ccccc1-c1nc(CS(=O)(=O)CC(=O)NC(C)c2ccccc2)c(C)o1 (stereo not drawn) -2.22%
CCN(CCCNC(=O)c1cc2c(=O)n(CC)c3ccccc3c2s1)c1cccc(C)c1 6.41%
COc1ccc2c(c1)c(=O)c(S(=O)(=O)c1ccc(C)c(C)c1)cn2CC(=O)Nc1ccccc1 -7.16%
CCc1ccc(N2CCn3c2nc2c3c(=O)n(Cc3ccc(F)cc3)c(=O)n2C)cc1 3.59%
Cc1ccc(-n2c3c(c(=O)[nH]c2=O)C(NC(=O)c2ccccc2F)(C(F)(F)F)C(=O)N3)cc1C (stereo not drawn) -13.4%
Cc1ccc(CNc2ccc(-c3nc(-c4ccco4)no3)cc2[N+](=O)[O-])cc1 -11.6%
CCN(CC)CC(=O)Nc1c(C)cccc1C 0.144%
Cc1ccc(S(=O)(=O)c2nc(-c3ccccc3)oc2N2CCN(c3ccccc3)CC2)cc1 -12.4%
COc1ccc(C(=O)Nc2ccc(-n3nncc3-c3ccc(OC)c(OC)c3)cc2)cc1 -8.72%
Cc1ccc(-c2cc(C(=O)O)n(Cc3ccccc3)n2)cc1 -13.4%
COc1ccc(Cl)cc1NC(=O)CN(c1cc(C)cc(C)c1)S(=O)(=O)c1c(C)n[nH]c1C -10.9%
CCc1ccc(NC(=O)c2cc3c(=O)n(Cc4cccs4)ccc3nc2C)cc1 -14.7%
O=C(Nc1cc(F)ccc1F)C1COc2ccccc2C1 (stereo not drawn) -26.7%
COc1cc(-c2noc(C3CC(=O)N(c4ccc5c(c4)OCCO5)C3)n2)cc(OC)c1OC (stereo not drawn) -15.6%
CCCOc1ccc(-c2nc3ccccc3c(=O)o2)cc1 -3.15%
CC(C)(C)c1ccc(-c2nc3cc(NC(=O)c4cc5ccccc5o4)ccc3o2)cc1 5.8%
CCc1cccc(N(C)C(N)=Nc2cccc3ccccc23)c1 4.05%
O=c1cc(-c2ccccc2)nc(SCc2nc(-c3ccc(C(F)(F)F)cc3)no2)[nH]1 -2.74%
COc1ccc(CNC(=O)CCc2cn(Cc3cc(C)ccc3C)c3ccccc23)cc1OC -27.5%
O=C(Cn1ccn(-c2cccc(Cl)c2)c(=O)c1=O)NCCc1ccccc1 4.54%
CC(C)c1ccc(NC(=O)C2CCN(S(=O)(=O)c3cccc4nsnc34)CC2)cc1 -12.2%
Cc1c(C(=O)Nc2nc(-c3ccc(F)cc3)ns2)oc2ccc(Br)cc12 -2.22%
CC(=O)NS(=O)(=O)c1ccc(N)cc1 -10.4%
COc1ccc(NC(=O)NC2COc3ccccc3C2)c(OC)c1 (stereo not drawn) -0.917%
O=S(=O)(NCC(c1ccco1)S(=O)(=O)c1ccccc1)c1ccccc1 (stereo not drawn) -15.6%
Cc1cn([C@H]2C=C[C@@H](CO)O2)c(=O)[nH]c1=O -9.84%
Cc1c(C(=O)Nc2ccc(F)c(F)c2)oc2ccc(S(=O)(=O)N3CCCCC3)cc12 -14%
COc1ccccc1CNC(=O)CCCCn1c(=O)c2ccccc2n(Cc2c(C)cc(C)cc2C)c1=O -22.6%
COc1ccc(CNC(=O)Cn2c(=O)oc3cc(S(=O)(=O)N4CCCCCC4)ccc32)cc1 -15.7%
COc1ccc(N2CCN(C(=O)CCc3c(C)nc4c(-c5ccccc5)c(C)nn4c3C)CC2)cc1 -21.4%
COc1ccc2c(c1)cc(CNc1ccc(OC)c(OC)c1)c(=O)n2CC(=O)Nc1ccc(F)cc1 -9.73%
CN(CC(=O)Nc1cccc(Cl)c1)S(=O)(=O)c1ccc2[nH]c3c(c2c1)CCCC3 -17.2%
CC1=C(C(N)=O)C(c2ccc(C(C)C)cc2)n2nc(SCc3ccccc3)nc2N1 (stereo not drawn) -6.56%
COc1ccc(CCNC(=O)c2ccc3c(c2)N(Cc2ccc(C)cc2)CCS3)cc1OC -10.1%
CCOc1ccc(S(=O)(=O)N(CC(=O)Nc2cccnc2)c2ccccc2)cc1 -0.722%
Cc1cc(N2CCN(C)CC2)nc2ccc(NC(=O)Nc3ccccc3Br)cc12 3.82%
Cc1cc(C)n2nc(SCC(=O)Nc3cc(Cl)ccc3C)nc2n1 -6.8%
COC(=O)c1ccc(NC(=O)CCc2c(C)nc3c(c(C)nn3-c3ccc(C)cc3)c2C)cc1 -11.7%
